We go through four molecules from US20170306033A1 (Amgen, published 2017).

The target of one assay is T1, human PAC1 receptor (human, UniProt P41586 21-468).
T1 sequence: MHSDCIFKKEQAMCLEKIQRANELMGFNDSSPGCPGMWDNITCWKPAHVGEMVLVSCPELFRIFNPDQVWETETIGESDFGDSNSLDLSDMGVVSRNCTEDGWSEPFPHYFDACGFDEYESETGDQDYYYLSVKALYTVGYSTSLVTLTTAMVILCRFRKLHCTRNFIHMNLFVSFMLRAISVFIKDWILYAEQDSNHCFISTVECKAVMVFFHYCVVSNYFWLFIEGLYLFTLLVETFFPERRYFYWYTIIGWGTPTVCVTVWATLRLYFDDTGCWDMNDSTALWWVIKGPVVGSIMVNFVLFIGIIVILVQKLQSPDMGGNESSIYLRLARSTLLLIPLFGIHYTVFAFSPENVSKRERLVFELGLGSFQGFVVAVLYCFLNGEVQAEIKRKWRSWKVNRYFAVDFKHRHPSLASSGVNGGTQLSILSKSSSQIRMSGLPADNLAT
In words: cell-based or functional assay.

Another assay addresses human CGRP receptor (human, UniProt Q16602 23-461; O60894 27-148). Kind of assay: cell-based or functional assay.

Chain of human CGRP receptor (Q16602 23-461 limits assumed, chain 1 of 2): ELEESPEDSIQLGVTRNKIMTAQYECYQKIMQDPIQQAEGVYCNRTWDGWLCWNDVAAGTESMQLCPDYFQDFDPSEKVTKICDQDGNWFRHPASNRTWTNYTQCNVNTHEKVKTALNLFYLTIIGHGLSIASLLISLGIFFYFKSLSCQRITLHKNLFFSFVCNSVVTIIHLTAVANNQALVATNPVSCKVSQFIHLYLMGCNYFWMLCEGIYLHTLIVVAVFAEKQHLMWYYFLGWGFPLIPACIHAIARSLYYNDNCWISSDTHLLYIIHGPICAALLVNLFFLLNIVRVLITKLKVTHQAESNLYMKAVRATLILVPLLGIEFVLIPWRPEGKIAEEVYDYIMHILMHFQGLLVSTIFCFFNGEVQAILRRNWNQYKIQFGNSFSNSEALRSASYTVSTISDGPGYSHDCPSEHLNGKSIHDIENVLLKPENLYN
Chain of human CGRP receptor (O60894 27-148 limits assumed, chain 2 of 2, further chain): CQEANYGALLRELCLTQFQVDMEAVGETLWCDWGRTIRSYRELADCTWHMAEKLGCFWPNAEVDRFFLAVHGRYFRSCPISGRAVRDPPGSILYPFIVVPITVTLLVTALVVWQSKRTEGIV

B1: iPS:327277 (bispecific antibody, human IgG1, kappa, lambda, N297G)
light 1: DIVMTQSPDSLAVSLGERATIHCKSSQSVLYSSNNKNFLTWYQQKPGQPPKLLIYRASTRESGVPDRFSGSGSGTDFTLTISSLQAEDVAVYFCQQYYSAPFTFGPGTRVDIKRTVAAPSVFIFPPSDEQLKSGTASVVCLLNNFYPREAKVQWKVDNALQSGNSQESVTEQDSKDSTYSLESTLTLSKADYEKHKVYACEVTHQGLSSPVTKSFNRGEC
heavy 1: QVQLQESGPGLVKPSQTLSLTCTVSGGSISSGGYYWSWIRQHPGKGLEWIGYIYYSGNTYYNPSLKSRVTISGDTSKNQFSLKLRSVTAADTAVYYCTRGGAARGMDVWGQGTTVTVSSASTKGPSVFPLAPSSKSTSGGTAALGCLVKDYFPEPVTVSWNSGALTSGVHTFPAVLQSSGLYSLKSVVTVPSSSLGTQTYICNVNHKPSNTKVDKKV[left out - human IgG1 Fc with R292C N297G V302C K370D K392D K409D (EU numbers)]
light 2: QSVLTQSPSASGTPGQRVTISCSGSSSNIGSNYVYWYQQLPGAAPKLLILRNNQRPSGVPDRFSGSKSGTSASLTISGLRSEDEADYYCAAWDDSLSGWVFGGGTKLTVLGQPKANPTVTLFPPSSEELQANKATLVCLISDFYPGAVTVAWKADGSPVKAGVETTKPSKQSNNKYAAKSYLSLTPEQWKSHRSYSCQVTHEGSTVEKTVAPTECS
heavy 2: [left out - about 100 residues]DRTGYSISWSSYYYYYGMDVWGQGTTVTVSSASTKGPSVFPLAPSSKSTSGGTAALGCLVKDYFPEPVTVSWNSGALTSGVHTFPAVLQSSGLYSLESVVTVPSSSLGTQTYICNVNHKPSNTKVDKKVEPKSCDKTHTCPPCPAPELLGGPSVFLFPPKPKDTLMISRTPEVTCVVVDVSHEDPEVKFNWYVDGVEVHNAKTKPCEEQYGSTYRCVSVLTVLHQDWLNGKEYKCKVSNKALPAPIEKTISKAKGQPREPQVYTLPPSRKKMTKNQVSLTCLVKGFYPSDIAVEWESNGQPENNYKTTPPVLKSDGSFFLYSKLTVDKSRWQQGNVFSCSVMHEALHNHYTQKSLSLSPGK
On to B1, for which the “% inhibition of human PAC1” value with human PAC1 receptor is 56%. For the same molecule, the “% inhibition of human CGRPR” value in the assay with human CGRP receptor amounted to 83%.

B2: iPS:328043 (bispecific antibody, human IgG1, kappa, lambda)
light 1: DIVMTQSPDSLAVSLGERATINCKSSQSVLYSSNNKNFLTWYQQKPGQPPKLLIYRASTRESGVPDRFSGSGSGTDFTLTISSLQAEDVAVYFCQQYYSAPFTFGPGTRVDIKRTVAAPSVFIFPPSDEQLKSGTASVVCLLNNFYPREAKVQWKVDNALQSGNSQESVTEQDSKDSTYSLESTLTLSKADYEKHKVYACEVTHQGLSSPVTKSFNRGEC
heavy 1: QVQLQESGPGLVKPSETLSLTCTVSGGSISSGGYYWSWIRQPPGKGLEWIGYIYYSGNTYYNPSLKSRVTISVDTSKNQFSLKLRSVTAADTAVYYCTRGGAARGMDVWGQGTTVTVSSASTKGPSVFPLAPSSKSTSGGTAALGCLVKDYFPEPVTVSWNSGALTSGVHTFPAVLQSSGLYSLKSVVTVPSSSLGTQTYICNVNHKPSNTKVDKKV[left out - human IgG1 Fc with changes]
light 2: QSVLTQSPSASGTPGQRVTISCSGSSSNIGSNYVYWYQQLPGAAPKLLILRNNQRPSGVPDRFSGSKSGTSASLTISGLRSEDEADYYCAAWDDSLSGWVFGGGTKLTVLGQPKANPTVTLFPPSSEELQANKATLVCLISDFYPGAVTVAWKADGSPVKAGVETTKPSKQSNNKYAAKSYLSLTPEQWKSHRSYSCQVTHEGSTVEKTVAPTECS
heavy 2: [left out - about 100 residues]DRTGYSISWSSYYYYYGMDVWGQGTTVTVSSASTKGPSVFPLAPSSKSTSGGTAALGCLVKDYFPEPVTVSWNSGALTSGVHTFPAVLQSSGLYSLESVVTVPSSSLGTQTYICNVNHKPSNTKVDKKVEPKSCDKTHTCPPCPAPELLGGPSVFLFPPKPKDTLMISRTPEVTCVVVDVSHEDPEVKFNWYVDGVEVHNAKTKPCEEQYGSTYRCVSVLTVLHQDWLNGKEYKCKVSNKALPAPIEKTISKAKGQPREPQVYTLPPSRKEMTKNQVSLTCLVKGFYPSDIAVEWESNGQPENNYKTTPPVLKSDGSFFLYSKLTVDKSRWQQGNVFSCSVMHEALHNHYTQKSLSLSPGK
On to B2, for which, in the assay with human PAC1 receptor, the “% inhibition of human PAC1” value came out at 8%. The “% inhibition of human CGRPR” value with human CGRP receptor turned out to be 75%.

B3: iPS:328038 (bispecific antibody, human IgG1, kappa, lambda)
light 1: DIVMTQSPDSLAVSLGERATINCKSSQSVLYSSNNKNFLTWYQQKPGQPPKLLIYRASTRESGVPDRFSGSGSGTDFTLTISSLQAEDVAVYFCQQYYSAPFTFGPGTRVDIKRTVAAPSVFIFPPSDEQLKSGTASVVCLLNNFYPREAKVQWKVDNALQSGNSQESVTEQDSKDSTYSLESTLTLSKADYEKHKVYACEVTHQGLSSPVTKSFNRGEC
heavy 1: QVQLQESGPGLVKPSETLSLTCTVSGGSISSGGYYWSWIRQPPGKGLEWIGYIYYSGNTYYNPSLKSRVTISVDTSKNQFSLKLRSVTAADTAVYYCTRGGAARGMDVWGQGTTVTVSSASTKGPSVFPLAPSSKSTSGGTAALGCLVKDYFPEPVTVSWNSGALTSGVHTFPAVLQSSGLYSLKSVVTVPSSSLGTQTYICNVNHKPSNTKVDKKV[left out - human IgG1 Fc with changes]
light 2: QSVLTQPPSASGTPGQRVTISCSGSSSNIGSNYVYWYQQLPGAAPKLLIFRNNQRPSGVPDRFSGSKSGTSASLAISGLRSEDEADYYCAAWDDSLSGWVFGGGTKLTVLGQPKANPTVTLFPPSSEELQANKATLVCLISDFYPGAVTVAWKADGSPVKAGVETTKPSKQSNNKYAAKSYLSLTPEQWKSHRSYSCQVTHEGSTVEKTVAPTECS
heavy 2: [left out - about 100 residues]DRTGYSISWSSYYYYYGMDVWGQGTTVTVSSASTKGPSVFPLAPSSKSTSGGTAALGCLVKDYFPEPVTVSWNSGALTSGVHTFPAVLQSSGLYSLESVVTVPSSSLGTQTYICNVNHKPSNTKVDKKVEPKSCDKTHTCPPCPAPELLGGPSVFLFPPKPKDTLMISRTPEVTCVVVDVSHEDPEVKFNWYVDGVEVHNAKTKPCEEQYGSTYRCVSVLTVLHQDWLNGKEYKCKVSNKALPAPIEKTISKAKGQPREPQVYTLPPSRKEMTKNQVSLTCLVKGFYPSDIAVEWESNGQPENNYKTTPPVLKSDGSFFLYSKLTVDKSRWQQGNVFSCSVMHEALHNHYTQKSLSLSPGK
On to B3, for which, in the assay with human PAC1 receptor, the “% inhibition of human PAC1” value came to 6%. The “% inhibition of human CGRPR” value with human CGRP receptor turned out to be 69%.

B4: iPS:328041 (bispecific antibody, human IgG1, kappa, lambda, N297G)
light 1: DIVMTQSPDSLAVSLGERATINCKSSQSVLYSSNNKNFLTWYQQKPGQPPKLLIYRASTRESGVPDRFSGSGSGTDFTLTISSLQAEDVAVYFCQQYYSAPFTFGPGTRVDIKRTVAAPSVFIFPPSDEQLKSGTASVVCLLNNFYPREAKVQWKVDNALQSGNSQESVTEQDSKDSTYSLESTLTLSKADYEKHKVYACEVTHQGLSSPVTKSFNRGEC
heavy 1: QVQLQESGPGLVKPSETLSLTCTVSGGSISSGGYYWSWIRQPPGKGLEWIGYIYYSGNTYYNPSLKSRVTISVDTSKNQFSLKLRSVTAADTAVYYCTRGGAARGMDVWGQGTTVTVSSASTKGPSVFPLAPSSKSTSGGTAALGCLVKDYFPEPVTVSWNSGALTSGVHTFPAVLQSSGLYSLKSVVTVPSSSLGTQTYICNVNHKPSNTKVDKKV[left out - human IgG1 Fc with R292C N297G V302C K370D K392D K409D (EU numbers)]
light 2: QSVLTQPPSASGTPGQRVTISCSGSSSNIGSNYVYWYQQLPGAAPKLLIFRNNQRPSGVPDRFSGSKSGTSASLAISGLRSEDEADYYCAAWDDSLSGWVFGGGTKLTVLGQPKANPTVTLFPPSSEELQANKATLVCLISDFYPGAVTVAWKADGSPVKAGVETTKPSKQSNNKYAAKSYLSLTPEQWKSHRSYSCQVTHEGSTVEKTVAPTECS
heavy 2: [left out - about 100 residues]DRTGYSISWSSYYYYYGMDVWGQGTTVTVSSASTKGPSVFPLAPSSKSTSGGTAALGCLVKDYFPEPVTVSWNSGALTSGVHTFPAVLQSSGLYSLESVVTVPSSSLGTQTYICNVNHKPSNTKVDKKVEPKSCDKTHTCPPCPAPELLGGPSVFLFPPKPKDTLMISRTPEVTCVVVDVSHEDPEVKFNWYVDGVEVHNAKTKPCEEQYGSTYRCVSVLTVLHQDWLNGKEYKCKVSNKALPAPIEKTISKAKGQPREPQVYTLPPSRKKMTKNQVSLTCLVKGFYPSDIAVEWESNGQPENNYKTTPPVLKSDGSFFLYSKLTVDKSRWQQGNVFSCSVMHEALHNHYTQKSLSLSPGK
In the case of B4, the “% inhibition of human PAC1” value with human PAC1 receptor came to 17%. Also, in the assay with human CGRP receptor, the “% inhibition of human CGRPR” value is 82%.
